Experimental data as given in the supplement of paper PMC4466236.
The full ranking holds about 33,000 sequences; the median of “E-score (dimensionless, -0.5 to 0.5)” is about -0.058, and the highest 2% start at about 0.35. This is one part of the list.

Each sequence was assayed on MvaT (assay: PBM 8-mer E-score (mean of HK and ME arrays) (E-score (dimensionless, -0.5 to 0.5)); higher = stronger relative binding preference; most listed sequences are background and not binding sites).
In short: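 Full-length P. aeruginosa MvaT, with glutathione S-transferase fused to its N-terminus (cloned into pTH6838 by isothermal assembly), was tested by protein binding microarray using a previously described protocol. Two universal double-stranded 60-mer arrays (ME and HK) were used, each with a constant 25-mer primer region and a variable 35-mer region covering all 8-mers. The rank-based 8-mer E-score (-0.5 to 0.5) is the mean of the two arrays, parsed with a custom Python script.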

Sequence | PBM 8-mer E-score
GGTATAAA | 0.339
GAATGCTA | 0.0872
GACCGCTA | -0.115
TAACATAA | 0.303
ACTACTTC | 0.117
CAGTCTAC | -0.158
CGGCAACC | -0.244
AGGGAAAT | 0.13
AGGCGCAG | -0.186
GATATATA | 0.469
CGCTATGC | -0.174
TGCTCTAA | -0.0282
CAAAACCG | -0.0133
GATCGAGA | 0.00421
CGACACAC | -0.135
AGACAGAG | -0.149
ATGCAGCC | -0.192
CGGAATGA | -0.2
AAGCGAGG | -0.187
ATACGGTC | 0.0722
ATTGCGCA | 0.111
ATTGGTTC | 0.012
TACCACGA | 0.0575
CGAAGCTC | -0.289
GGACTCGA | -0.185

Sequence | PBM 8-mer E-score
CGCTCCGA | -0.206
ACAATGGA | -0.0253
ACGCTTCC | -0.238
CGACTGAA | 0.0892
CTGTACTC | -0.163
ACCCCCCA | -0.358
AATCCGAC | -0.0943
CGTACTAA | 0.206
AGTGGGCG | -0.217
GAAAGATA | 0.195
GGTGGCCA | -0.194
TCTATACA | 0.136
CAAGCGTG | -0.266
GACTAAAC | 0.102
ATCAGATA | 0.0399
CGGATAGA | -0.03
CCCACAGA | -0.149
GTGGTGGA | -0.159
AGACTAGG | -0.127
ATCTTAGG | -0.216
AACCTCGT | -0.00218
GGTACCTA | -0.0911
CGATTAGA | 0.00897
AGCTCGAC | -0.225
CCCAGGCC | -0.273

Sequence | PBM 8-mer E-score
ATTACCTA | 0.113
AGTTATAG | 0.316
ATCTTCCA | 0.0882
GCGACTAA | -0.0929
CGGTTGTC | -0.114
ATATCTAC | 0.233
GCCTGTAA | 0.0748
CTTGGCCA | -0.109
ACGTTTGA | 0.0427
CTTGGCAC | -0.232
GCCAGAAC | -0.0482
CGGGTAGC | -0.17
ATATAGCC | 0.0877
GAAAGAAC | 0.11
ACGGGGAC | -0.216
CGTTGACA | -0.194
AGCTTTAC | -0.00475
AGGAAGAA | -0.00696
AGATAACC | -0.021
ACTACCAA | 0.0803
ACCGCGGA | -0.226
GCCCAGCA | -0.178
AGTGAGAG | 0.0213
CAGAGACG | -0.193
ATGATAAT | 0.292

Sequence | PBM 8-mer E-score
ATGCTCGA | -0.0665
CCGTCCCA | -0.189
CACAAGTC | 0.044
GGCCTGGA | -0.19
AAACATGA | 0.249
TCTCTTAA | 0.169
ACCGGTAG | -0.0729
ACGGATAC | -0.0502
CTTTGACA | -0.0224
CACCAGCC | -0.0802
CTTCGCAA | -0.0532
GGGCCATA | -0.0688
TATAGCGA | 0.113
GCTCATAA | 0.0536
ATCAGGTC | -0.0455
AATAATCG | 0.309
AGTGTCCC | -0.219
GATGGGTA | 0.0251
AAAGTGGC | -0.028
GCTTCGAA | 0.0154
CTGCGCGA | -0.1
ATATGTGG | 0.181
AGACAACT | 0.0929
AATTCGGC | 0.13
GCCTTTAA | 0.0394

Sequence | PBM 8-mer E-score
GAGAGAGA | -0.0661
CGTCATAC | -0.0691
ACTTTGCT | 0.134
CGGGTTAC | -0.0734
TAAGGTAA | 0.122
GCTGCAGC | -0.279
GCGGATTA | 0.119
CGCTAGAG | -0.0936
AACGGATC | -0.117
CGATTAGC | -0.186
ATCATTCA | 0.138
GAGGTGTA | 0.00609
CAAGGGTG | -0.255
GGAACGAA | -0.101
ACCCCTTA | -0.0583
GTGTAAGA | 0.137
CTAGAGAG | -0.241
CTACCGTC | -0.264
CTTCAGGC | -0.271
AGATTGCA | 0.0485
CGTAGATA | 0.0948
CCGGGCAA | -0.208
ATATAATG | 0.402
ACTGTGGG | -0.129
CACCAGTC | -0.0178

Sequence | PBM 8-mer E-score
ATCGTAGG | -0.11
GCGACACA | -0.00753
GTGTCGCA | -0.184
GGGAGACA | -0.185
AATGTGCC | 0.0164
GCGTTACC | -0.109
CCGCGAGC | -0.177
CGAGTGAC | -0.244
CCCGCGTC | -0.126
GAGTAGCC | -0.284
TCCTTTAA | -0.000171
CGCGGATC | -0.168
CGCACAGC | -0.0754
AACGGTAT | -0.0447
CCTGCATA | 0.0536
CCCAGTAC | -0.175
AGGACTTA | 0.0588
AATGGGTA | 0.138
GCCCCTCC | -0.347
ATGGGGAA | -0.0795
GTGATCAC | 0.00942
AATCGACC | -0.0472
AGTTCCCC | -0.0538
AAGTAAGG | 0.216
AAAGCATC | -0.137

Sequence | PBM 8-mer E-score
TACTCGAA | 0.189
GGTAAACA | 0.12
AAATCTGG | 0.00259
AGCTGAAC | -0.2
AAGGGGGC | -0.264
AGTGAAGC | -0.294
AAAGCGGA | -0.0665
CATCCGAA | -0.085
CGGCCGTC | -0.233
CACTGCCC | -0.21
AGGCGGCG | -0.263
CTTGGAGC | -0.218
GCACCTCC | -0.323
CATGGAGC | -0.21
GCCGTATA | 0.01
ACTATCCC | 0.037
CGGGTAAG | -0.0672
CGTTAAAA | 0.295
AAGAGCGC | -0.074
ACCCCCGG | -0.291
GGAACACA | -0.0728
GTGCCACA | -0.196
ATGTTGCA | 0.175
AAAGGTCA | -0.0376
TACAATAA | 0.328

Sequence | PBM 8-mer E-score
GGGACGAC | -0.0537
AGCGACGA | -0.0547
TACCATAA | 0.271
CCTAACCA | -0.103
AGAGACCG | -0.221
GCCCAATA | -0.00417
ATTGTCAC | 0.0554
CCCCGCTA | -0.303
GGTCGTTA | -0.0413
GGGTAGCA | -0.213
TCACCAGA | -0.0169
TACTAGGA | 0.0708
CCAATCGG | -0.128
ACCGAGCC | -0.243
AGGACACT | -0.0447
CGTAAAGC | -0.0951
TAATATCA | 0.421
AGAAAAGC | 0.166
GACGAGAA | -0.0626
GGCGCACA | -0.114
CCCGGTAG | -0.268
CTCATCCA | -0.176
TTGGGAAA | 0.137
ATCTTACA | 0.155
ACTATAAC | 0.334

Sequence | PBM 8-mer E-score
CGAACTAC | 0.132
CTGAGAGC | -0.271
AGAGGTCC | -0.328
ACAGTAGC | 0.0672
GATTGCAA | 0.127
AGATGCGC | -0.148
CGATTCGC | -0.0586
GCCGACGA | -0.338
ACGTAGAC | -0.0989
CCAAGAAG | -0.0842
CCGCATAA | -0.0045
ACTATTCG | 0.166
CTGACATA | -0.054
CGGCACTA | -0.0559
AAATCTTA | 0.153
CTTTCGTC | -0.112
GATCCATC | -0.299
CATTGGGA | -0.109
AATCAATA | 0.283
ACCGTTCG | -0.215
CATCAGCA | -0.0304
CGTGGCTA | -0.168
CCCCGGTC | -0.31
ACGAAGAC | -0.0409
CGCTCTGA | -0.167

Sequence | PBM 8-mer E-score
AACGAACC | -0.0678
TACAGTCA | -0.0268
CCCCTCCG | -0.328
AACCAATA | 0.249
AAGTGTTG | 0.124
ATCATTAA | 0.259
TGAGAGCA | -0.229
ACAGCGAA | 0.0419
TGCCCCCA | -0.276
CCAGTTGC | -0.118
AATATATG | 0.446
AATTTTCT | 0.13
AACAGTCT | -0.0682
GATCTAAC | -0.0118
AGTACTCC | -0.0648
CGTCAGCA | -0.0169
ACACGGGC | -0.172
ACACTGAC | -0.0431
ATAAATCC | 0.25
CCCGATTC | -0.0947
AACAAAGT | 0.2
ATTTGAAC | 0.25
CGCCGAGA | -0.123
CCCGCCAC | -0.182
AAAGGGCG | -0.126

Sequence | PBM 8-mer E-score
TACGCCAA | 0.066
CTTCGTCA | -0.292
CGATACAC | -0.0952
GCGTGCTA | 0.0243
ATAGATGG | 0.0986
CTGCTCTA | -0.0879
CATGTTCC | -0.042
CACCTATG | -0.253
ACCTGTCA | -0.114
ACACCTAG | -0.153
CGGCACGA | -0.211
CGGTAGTA | 0.0348
CCAGTCTA | -0.13
GCTTGTGA | -0.00155
CAATTATA | 0.414
CGCCTTTA | -0.131
AAATCTAC | -0.0273
GCTGCCTA | -0.11
ACGGGTGC | -0.272
AAAATAGT | 0.228
ATCTCGTC | -0.0399
CCACTGCG | -0.274
AGCCCAAG | -0.17
CAGTGTTC | 0.0998
AAATCTGT | 0.174

Sequence | PBM 8-mer E-score
CCTGATAC | -0.144
GAGCGGCC | -0.203
ACAAGCGA | -0.105
AGGTCCAC | -0.135
GATCTCTA | -0.103
CCTTCGAC | -0.242
ACTTAACG | 0.127
CACGCTGC | -0.175
CAAGAGGC | -0.231
ATGTTCGC | -0.117
AAAGCGGT | -0.0387
CAGTGGGA | -0.137
GGGTTGGA | -0.0672
CATCAAAC | 0.0329
AAATAGTG | 0.136
CCCACAAA | 0.0328
CTTACGGA | -0.0455
CGGAGAAG | -0.204
GACTGGAA | 0.0566
AGTAAGAT | 0.171
AACTCTCA | 0.0312
CTCCTGGC | -0.241
GGTTGTTA | 0.0313
CGAACCAG | -0.104
AATGCAAT | 0.2

Sequence | PBM 8-mer E-score
CCCTGTCA | -0.266
ATCGAGCG | -0.0148
AGGGCAGA | -0.0894
ACCCTGGA | -0.274
TCTACCAA | 0.0372
ACGGTTGA | -0.0318
AGTACCCG | -0.155
AAAATTCA | 0.107
CAAAGGTC | -0.184
GATCTACA | 0.0246
ACAGACCT | -0.194
GGGAACGA | -0.193
AGTCTTCG | 0.0111
AATCGGAT | -0.00202
CCAGTCGA | -0.143
CCCACGGG | -0.324
ACCAGTGC | -0.188
AAGTGAGT | 0.0661
CGGTAAGA | -0.0992
GTGCACTA | -0.0182
AAGGAAGG | -0.24
GCTGTCAA | -0.0269
TCAGAACA | 0.0164
CACTAGTC | -0.0038
CAAGCTCC | -0.092

Sequence | PBM 8-mer E-score
AACTGTGC | 0.00815
GGCACCAC | -0.0923
AATTCCCT | -0.0297
CATTGCGC | -0.146
ATAGACCA | -0.0371
TCCCCAGA | -0.221
ATCACCGA | -0.178
GCGAGTAA | 0.123
TAAGTATA | 0.282
AGGCGCCC | -0.404
CGACAGTA | 0.107
ACAAAGTA | 0.179
AGTACATC | 0.154
AACACACC | 0.0682
ATATTGCC | 0.234
CGGCTGGA | -0.208
ACGCCCAA | -0.0508
AAAGTAAC | 0.206
ACCTCTAG | -0.023
